# Measured values from the supplement of paper PMC3334620.
# In all, about 33,000 sequences were measured (“E-score (-0.5 to 0.5)”: median about -0.043, highest 2% from about 0.37 on). This is one part of the list.
# Molecular target: T1, Upc2 (UniProt Q12151)
# T1 sequence: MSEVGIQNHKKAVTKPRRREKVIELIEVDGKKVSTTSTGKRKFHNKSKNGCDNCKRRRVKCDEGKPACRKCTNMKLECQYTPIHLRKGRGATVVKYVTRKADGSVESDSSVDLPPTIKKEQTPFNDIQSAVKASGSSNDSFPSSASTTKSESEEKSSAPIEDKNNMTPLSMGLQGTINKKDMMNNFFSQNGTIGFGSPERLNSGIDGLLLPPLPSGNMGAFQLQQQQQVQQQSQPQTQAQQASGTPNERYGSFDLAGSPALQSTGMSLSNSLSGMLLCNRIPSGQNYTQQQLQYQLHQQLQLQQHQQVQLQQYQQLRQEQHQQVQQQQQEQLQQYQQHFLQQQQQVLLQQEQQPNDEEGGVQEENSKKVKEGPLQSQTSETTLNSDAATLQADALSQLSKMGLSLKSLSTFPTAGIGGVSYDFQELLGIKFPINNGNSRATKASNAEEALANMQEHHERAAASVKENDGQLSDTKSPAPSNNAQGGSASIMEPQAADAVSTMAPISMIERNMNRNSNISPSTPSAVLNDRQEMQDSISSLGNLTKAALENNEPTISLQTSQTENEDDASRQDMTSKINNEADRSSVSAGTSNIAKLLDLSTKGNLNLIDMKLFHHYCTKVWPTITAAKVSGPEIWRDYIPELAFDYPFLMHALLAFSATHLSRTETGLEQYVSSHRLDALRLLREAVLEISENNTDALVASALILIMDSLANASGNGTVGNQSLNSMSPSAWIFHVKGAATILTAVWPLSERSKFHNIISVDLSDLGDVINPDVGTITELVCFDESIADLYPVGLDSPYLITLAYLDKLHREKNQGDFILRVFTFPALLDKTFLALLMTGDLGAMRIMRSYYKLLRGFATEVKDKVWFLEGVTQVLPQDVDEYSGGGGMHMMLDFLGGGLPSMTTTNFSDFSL
# Experiment: PBM E-score (8-mer binding enrichment) (E-score (-0.5 to 0.5)); higher = stronger / more preferred TF binding; most listed sequences are background and not binding sites
# Settings: protein concentration: 200 nM; construct: GST-full length
# Description: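 Universal 'all 10-mer' protein binding microarrays (Agilent AMADID 015681) probed with GST-tagged S. cerevisiae TFs (full-length or DBD) made by in vitro transcription/translation (PURExpress), about 100-200 nM. Bound TF was detected with fluorescent anti-GST. Each ungapped 8-mer (which stands for itself and its reverse complement) is scored by the PBM enrichment score (E-score), a modified Wilcoxon-Mann-Whitney statistic from -0.5 to +0.5, computed with the Universal PBM Analysis Suite. Scale: above 0.35 generally sequence-specific binding.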
row,Sequence,PBM E-score
1,AGTCTTAT,0.00819
2,AGTTTACG,0.348
3,CTACGCAA,0.0175
4,CCTAGCAG,-0.327
5,TAGAAAAA,-0.0194
6,AACTATGA,-0.204
7,GAACGTCC,0.0305
8,CCATCGAC,-0.247
9,ATGGTAAC,0.188
10,AGGATAAC,-0.0421
11,ATCGATAC,0.129
12,AGGCCATA,-0.199
13,ACTTAGTG,-0.168
14,AGTGATGG,-0.165
15,CACCTGGG,-0.341
16,AGCCACGA,-0.17
17,CAACGGCA,-0.0468
18,GGCAGTTA,-0.21
19,GATCGCAA,0.136
20,GCCACGTA,0.204
21,GGGAAATA,-0.187
22,CTATCTGC,-0.16
23,CCCGCAGC,-0.0149
24,GACAGATA,0.0867
25,GTCATTAA,0.0956

row,Sequence,PBM E-score
1,CAGCTACG,0.213
2,CATGCTTC,-0.039
3,CGCGGTCC,-0.0823
4,AAATGAAC,0.118
5,CGAGCAAA,0.162
6,AAACCGCG,0.00306
7,CCGAGATA,0.148
8,GGCCAGAA,-0.124
9,CGCTTCGA,-0.123
10,CAGACGAA,0.178
11,ACAACAAA,0.159
12,CCTCGGCA,0.0819
13,CTCTGGAA,0.0952
14,ACTACTTA,0.0816
15,TCCCGGGA,-0.22
16,GCGAGGAC,-0.102
17,CGACGGAA,0.172
18,GTCACAAC,0.123
19,AGTTCATA,-0.0563
20,CTTGCTTC,-0.154
21,AAGCACCG,-0.075
22,ATAGGGAT,-0.0755
23,CACTGGAC,-0.0285
24,GCGCCTGA,-0.205
25,AACGCGCG,0.265

row,Sequence,PBM E-score
1,CTCCGGAC,-0.0881
2,ACCGAGGC,0.0743
3,GACGGTCA,-0.176
4,GGTCTCGA,0.0263
5,ATGGAAAT,-0.0479
6,GGCAGCGA,-0.275
7,GGGATACA,-0.319
8,CCCCTAGA,-0.327
9,AGAAATCA,-0.0917
10,CCACACAC,-0.148
11,TAACGCAA,0.0914
12,CCGCGTAG,-0.135
13,GCTAAGCC,-0.164
14,GTGCCATA,-0.0165
15,GATGATGC,-0.107
16,CCGTCCAG,0.0277
17,AAGAGTGG,-0.0326
18,GATCCCCC,-0.222
19,GGAACCAA,-0.0542
20,GGATACTA,-0.183
21,ACACAGGC,-0.0476
22,GAACGTTA,0.166
23,CTCCCCAA,-0.145
24,AATTATTA,0.102
25,CTCCTCAA,-0.18

row,Sequence,PBM E-score
1,CGCTAGCC,-0.254
2,GTTCCCAA,0.161
3,CCGATATA,0.12
4,ACGTCTAA,-0.0583
5,CCTTTTCG,0.205
6,ATCTAAAG,-0.117
7,AGTTGCCG,-0.0348
8,CCGTTCAG,0.365
9,CTTAGGCC,-0.221
10,CACGGTAA,-0.0737
11,CATTACGG,-0.0286
12,GGTCTAGA,0.188
13,GCGCATAC,0.205
14,CGCAACAC,-0.0123
15,GCGCAACC,-0.187
16,CTCGACAC,-0.0456
17,CTATTGGA,-0.13
18,CTAGGGAA,-0.179
19,CCCAGTTA,-0.116
20,CACATGTA,-0.0925
21,ACCGCCCG,-0.0398
22,CTGTATTA,0.0384
23,AGTCTCAT,-0.177
24,CGTTGGTA,0.122
25,GACTTTGA,0.112

row,Sequence,PBM E-score
1,CCCAGTGA,-0.231
2,ATAATATC,0.0315
3,AAGTCGGG,-0.00586
4,TATTAGCA,0.00925
5,CCGTAGGC,-0.269
6,GACAGCCC,-0.093
7,ACATGCAC,-0.0716
8,GGATAGTA,0.0498
9,CTGATTAC,0.0106
10,GTCACCGA,-0.0815
11,GCCAAATA,0.123
12,GTGGTGCA,-0.128
13,GCCGATCC,0.0205
14,CCATCTGC,-0.00423
15,AACCAGAC,0.0359
16,GGTCGATA,-0.00733
17,CGACTCCA,0.0303
18,GAGATGAC,-0.206
19,CCCCATCG,0.0968
20,CGGACATA,0.0482
21,ATACGGCC,0.416
22,AAACGCAA,0.232
23,GTGCTCGA,0.0349
24,GTGTGGTA,0.0441
25,CGCAATAC,0.102

row,Sequence,PBM E-score
1,GAGCATCC,-0.144
2,AGTGCAAC,-0.0263
3,CAGCTTGA,-0.103
4,AGTCTAAG,-0.0185
5,GCAGTTCC,-0.184
6,AGTACATA,-0.0422
7,ATTCTCAA,-0.0926
8,AGGTTAAA,-0.0168
9,CGAGGGCG,0.109
10,ACACAGAC,-0.129
11,ATATATGG,-0.112
12,ACCATATC,0.104
13,AAAAAGCT,-0.112
14,CTCACTAC,0.0476
15,AATTAGAG,-0.0424
16,CCTCGTCA,0.108
17,ACTCAGTG,-0.26
18,CTAGTTGA,-0.228
19,CCCTGTAA,-0.017
20,ACGATTCA,0.328
21,AGGGTAAT,-0.138
22,GGCCGACC,-0.136
23,TATGCAAA,0.0871
24,AAATGCTA,-0.0542
25,AACGGGCA,0.246

row,Sequence,PBM E-score
1,AGAATATA,0.12
2,AATGCATC,-0.0637
3,TCCTCAAA,-0.24
4,CGCTCCCC,-0.0176
5,ACAGGTTG,-0.0143
6,CCGTTTCA,0.159
7,GATTGGAA,-0.102
8,GATACTAA,0.00269
9,AAGTCATA,-0.0313
10,GTCTCACA,-0.0791
11,AGAGGGGA,-0.229
12,AACCGGCG,0.151
13,ATGGAAAG,-0.0331
14,GCAACCGC,-0.0336
15,ACGCAAGA,0.0175
16,CTCTACGA,0.409
17,TACATAGA,-0.183
18,AGCCTCCG,-0.121
19,CCACGCTA,-0.0927
20,CAGTGTCA,-0.179
21,ACGGATAA,0.12
22,CCACTTCC,-0.0858
23,AGTTTGAC,0.0787
24,ATCAAGAC,-0.166
25,GAAACACA,0.103

row,Sequence,PBM E-score
1,GACCCATC,-0.0659
2,CGCGGAAA,-0.062
3,CAGCGACA,0.0616
4,CTGCTGCA,-0.168
5,CGCAGAAC,0.155
6,CATTTCGG,-0.104
7,TCCTCGCA,0.164
8,CAAAGATG,-0.0527
9,CCATCCTC,-0.031
10,AGTCCTGG,-0.0925
11,AACTTTGA,-0.16
12,ACCCGTCG,0.122
13,AGGAAAGA,-0.254
14,CGCATCTC,-0.107
15,AGCACTCG,0.111
16,ATCTTCAA,-0.136
17,AATATGAG,0.0422
18,AAGGAATG,-0.128
19,GACGAATA,0.0289
20,CGTACAGA,0.41
21,AGGGCATG,-0.177
22,AGCCTACA,-0.317
23,ACCGTGAA,-0.0592
24,GGGCCTGA,-0.081
25,CACTCGCC,-0.0485

row,Sequence,PBM E-score
1,ACACGCTC,0.0594
2,GGGGCGCA,-0.174
3,ACATTGAA,0.056
4,ATCTAGCC,-0.0576
5,CAGACTCG,-0.00735
6,ACCTCAGC,0.0604
7,CTTGCCGA,-0.0823
8,CCGCACCG,0.14
9,ATTAGCTC,-0.00086
10,ATAACCTA,0.0374
11,CACGAAGA,0.0935
12,ATGTCATC,-0.0697
13,CAACAGCC,-0.0545
14,CCGGTACA,0.106
15,AGTGCCAG,-0.28
16,ACGTAGTA,0.187
17,ACGGGCGA,0.0658
18,ACTGATGG,-0.32
19,ACAGGTGC,-0.236
